# The other results are listed elsewhere or left out. Viral Rep nickase domains cut single-stranded DNA in vitro (1 h at 37 °C, 3 µM enzyme); the outer parts of the 90-letter strands are left off. Uncut reads are compared with the no-enzyme pool on a log2 scale; the lower, the more was cut; hits are not called. The scaling is to total reads; values above 0 arise when much of the pool is cut.
# Assays:
# Test in all cases: uncleaved DNA left, log2 of reads against the no-enzyme library (log2 ratio); higher = less cleavage (more negative = more Rep cleavage of the k-mer); sequences stand for … in CTCGTCCG…ACCGGAGA
# [1] = test system: T1, Rep nickase domain of Muscovy duck circovirus
# T1 sequence (protein, residues 1-111, tag omitted): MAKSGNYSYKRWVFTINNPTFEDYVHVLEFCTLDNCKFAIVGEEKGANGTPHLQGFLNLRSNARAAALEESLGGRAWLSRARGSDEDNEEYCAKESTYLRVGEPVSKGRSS
# Description: (§1)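 A pool of 90-nt single-stranded DNAs with seven random bases just before the constant AC of the nick site (name = the seven bases) was cut by 3 µM recombinant His6-SUMO-tagged Rep nickase domain (300 nM DNA, 50 mM HEPES pH 8.0, 50 mM NaCl, 1 mM MnCl2, 1 h, 37 °C, three replicates). Uncut DNA was amplified and sequenced.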
# [2] = test system: T2, Rep nickase domain of banana bunchy top virus
# T2 sequence (protein, residues 1-94, tag omitted): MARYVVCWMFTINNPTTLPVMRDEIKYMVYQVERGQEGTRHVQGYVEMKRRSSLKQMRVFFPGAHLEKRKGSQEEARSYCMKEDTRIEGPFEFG
# Description: as §1
# [3] = test system: T3, Rep nickase domain of cabbage leaf curl virus
# T3 sequence (protein, residues 1-116, tag omitted): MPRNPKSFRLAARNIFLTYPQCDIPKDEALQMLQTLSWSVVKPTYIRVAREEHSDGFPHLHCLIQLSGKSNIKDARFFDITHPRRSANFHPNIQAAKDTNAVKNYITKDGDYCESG
# Description: as §1
# [4] = test system: T4, Rep nickase domain of chickpea chlorotic dwarf virus
# T4 sequence (protein, residues 1-124, tag omitted): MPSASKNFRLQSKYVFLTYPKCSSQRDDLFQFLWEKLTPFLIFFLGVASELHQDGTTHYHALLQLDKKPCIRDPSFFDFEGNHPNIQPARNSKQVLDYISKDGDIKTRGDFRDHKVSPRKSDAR
# Description: as §1
# [5] = test system: T5, Rep nickase domain of faba bean necrotic yellows virus
# T5 sequence (protein, residues 1-98, tag omitted): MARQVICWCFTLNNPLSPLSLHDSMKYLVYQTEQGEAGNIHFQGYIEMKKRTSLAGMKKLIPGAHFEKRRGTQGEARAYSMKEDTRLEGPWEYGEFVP
# Description: as §1
# [6] = test system: T6, Rep nickase domain of maize striate mosaic virus
# T6 sequence (protein, residues 1-117, tag omitted): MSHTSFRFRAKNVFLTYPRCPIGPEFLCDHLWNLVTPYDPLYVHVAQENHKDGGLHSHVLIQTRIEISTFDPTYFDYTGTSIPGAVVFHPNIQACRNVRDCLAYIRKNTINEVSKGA
# Description: as §1
# [7] = test system: T7, Rep nickase domain of porcine circovirus 2
# T7 sequence (protein, residues 2-116, tag omitted): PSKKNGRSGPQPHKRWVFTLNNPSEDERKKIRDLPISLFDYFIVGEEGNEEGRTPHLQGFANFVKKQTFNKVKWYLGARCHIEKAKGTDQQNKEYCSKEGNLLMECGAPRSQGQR
# Description: as §1
# [8] = test system: T8, Rep nickase domain of tomato yellow leaf curl virus
# T8 sequence (protein, residues 1-136, tag omitted): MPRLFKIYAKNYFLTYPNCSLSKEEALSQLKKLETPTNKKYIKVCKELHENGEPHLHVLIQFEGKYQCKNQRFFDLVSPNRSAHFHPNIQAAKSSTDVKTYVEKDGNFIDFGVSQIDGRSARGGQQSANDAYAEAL
# Description: as §1
# [9] = test system: T9, Rep nickase domain of wheat dwarf virus
# T9 sequence (protein, residues 1-137, tag omitted): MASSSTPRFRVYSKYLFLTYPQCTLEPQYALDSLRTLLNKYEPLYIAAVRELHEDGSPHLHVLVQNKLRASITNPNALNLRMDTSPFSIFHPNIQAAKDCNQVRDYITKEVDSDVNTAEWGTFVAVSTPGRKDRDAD
# Description: as §1
Sequence,uncleaved DNA left (log2) [1],uncleaved DNA left (log2) [2],uncleaved DNA left (log2) [3],uncleaved DNA left (log2) [4],uncleaved DNA left (log2) [5],uncleaved DNA left (log2) [6],uncleaved DNA left (log2) [7],uncleaved DNA left (log2) [8],uncleaved DNA left (log2) [9]
ATTGGCT,-0.0573,-0.101,-0.241,-0.564,-0.0418,-0.622,-0.0179,-0.115,-0.0505
GGTGATA,0.0446,0.0504,0.626,1.47,-0.00589,2.05,0.0801,0.00651,0.098
TTACTAG,-0.0972,-0.0917,-0.974,-1.55,-0.084,-1.31,0.0892,-0.0928,-0.175
ATACCCA,0.00885,0.0129,0.0625,-0.58,0.0882,0.0651,-0.431,0.0593,0.106
GACGCCA,-0.0761,0.0349,0.174,-0.375,-0.0192,0.868,-0.0654,0.0492,0.0961
TCTGTCT,0.0664,-0.0351,-0.0731,-1.57,0.0497,-0.68,-0.115,-0.0547,-0.139
TTCTTTG,-0.246,-0.25,-0.517,-0.938,-0.0954,-1.2,-0.0957,-0.0613,-0.112
TTCGATA,0.0985,-0.111,0.0981,-1.06,0.0717,-0.289,0.0724,0.0141,0.0396
GGCGGCG,-0.0476,0.0663,-0.322,-0.289,0.114,-0.229,0.195,0.0646,-0.0193
CTGTGAT,-0.0803,0.0223,0.329,1.23,-0.0981,1.62,-1.42,0.0113,0.0444
TTTGAGG,0.0708,0.067,0.44,1.23,0.021,1.43,0.213,0.0153,0.0488
TATCACA,-0.115,-0.078,0.0591,-2.15,-0.0639,-0.136,-0.14,-0.0161,-0.0453
CTGGGTC,0.0768,0.0328,0.453,0.573,-0.17,0.72,0.118,0.0138,-0.0409
CTGCCCT,0.0516,0.0332,-0.0141,-1.19,-0.029,-0.235,-0.365,0.103,-0.00647
GCAGTCC,-0.175,-0.0731,0.135,0.274,-0.133,0.173,0.00432,-0.0896,0.104

# Source: the supplement of paper PMC7826260
